The supplement of paper PMC12217912
The other results are listed elsewhere or left out. The full chains were built here from the parent and the listed change. Values near 0.05 are background.

B1: TEV protease; numbered along this chain (parent)
chain: MGESLFKGPRDYNPISSSICHLTNESDGHTTSLYGIGFGPFIITNKHLFRRNNGTLVVQSLHGVFKVKDTTTLQQHLVDGRDMIIIRMPKDFPPFPQKLKFREPQREERICLVTTNFQTKSMSSMVSDTSCTFPSGDGIFWKHWIQTKDGQCGSPLVSTRDGFIVGIHSASNFTNTNNYFTSVPKNFMELLTNQEAQQWVSGWRLNADSVLWGGHKVFMVKPEEPFQPVKEATQL

Variants of: B1
Test: raw area under fraction-flipped curve 0-4 h after induction (AUC4h, not background-subtracted), DNA-recorder readout of cleavage of the substrate (dimensionless); higher = more cleavage of the substrate by the protease variant
Conditions: temperature: 34 °C; time window: 0-4 h after rhamnose induction
Protocol: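 In vivo DNA recorder in E. coli TOP10(DE3) ΔrhaA at 34 °C. Each TEVp single-site mutant (parent TEVp 0) is paired with a single-site variant of the 7-mer TEVs (canonical ENLYFQ|S). The substrate sits between flexible linkers in a Bxb1-sfGFP-TEVs-SsrA fusion, so cleavage stabilises Bxb1 and speeds flipping of a recombination array, read by NGS. The value is the raw area under the fraction-flipped curve over 0-4 h after rhamnose induction (AUC4h), with ≥20 reads per time point. It is not background-subtracted; inactive controls average about 0.047.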
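Also: Bxb1 expression induced with 0.2% (w/v) L-rhamnose at OD600 near 0.5, cultures sampled hourly, flipped fraction per protease–substrate barcode pair counted by paired-end Illumina sequencing.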

Variant	area with substrate ENLYFQA	area with substrate ENLYFQC	area with substrate ENLYFQG	area with substrate ENLYFQH	area with substrate ENLYFQI	area with substrate ENLYFQL	area with substrate ENLYFQM	area with substrate ENLYFQN	area with substrate ENLYFQP	area with substrate ENLYFQQ	area with substrate ENLYFQR	area with substrate ENLYFQS	area with substrate ENLYFQT	area with substrate ENLYFQV	area with substrate ENLYFQW	area with substrate ENLYFQY	area with substrate ENLYFQD	area with substrate ENLYFQF	area with substrate ENLYFQK	area with substrate ENLYFQE
V78P	0.0999	0.0984	0.0789	0.0674	0.0595	0.0609	0.0572	0.0587	0.0641	0.0741	0.0493	0.0731	0.0547	0.061	0.0331	0.0548	–	–	–	–
V78Y	0.0857	0.0783	0.0766	0.049	0.057	0.0604	0.0683	–	–	–	0.06	0.0751	0.0563	–	0.0615	–	0.0627	0.0578	0.0578	–
V113G	0.0855	–	0.0737	–	–	–	0.0821	–	–	–	0.0501	0.0794	0.0772	–	0.055	–	–	–	0.0548	–
R102H	0.0409	0.0601	0.0614	0.0473	0.0546	0.0546	–	0.0452	–	–	0.0602	0.0618	0.0555	–	0.0451	–	–	0.0466	0.0412	–
E108A	0.0545	0.0781	0.0685	0.0464	0.0538	–	–	0.056	0.0593	–	0.046	0.0654	0.0489	0.0559	0.0457	0.0616	–	0.0525	–	0.0574
R81C	0.138	0.109	0.0787	0.0778	0.0578	0.057	0.0836	0.0734	0.0512	–	0.058	0.0966	0.0612	0.0615	0.0646	0.0634	0.0613	0.0801	0.0578	–
P89S	0.0904	0.0991	0.0915	0.0761	0.0599	–	0.0909	–	0.0581	–	0.056	0.0875	0.0536	0.0742	0.06	–	–	–	0.0627	–
F92C	0.0681	0.104	0.0942	0.0792	–	0.0613	0.0989	0.0744	0.0603	0.0777	0.0725	0.0992	0.0708	0.0653	0.0628	0.053	0.0655	0.084	0.0659	0.0856
W141I	0.0653	0.0649	0.064	–	0.058	0.0472	–	0.0427	0.0561	0.0655	0.0537	0.0643	–	–	0.033	–	–	–	0.0523	–
S121M	0.0646	0.123	0.0873	0.0838	0.0639	0.0632	0.0929	0.0652	–	–	0.0508	0.0996	0.0692	0.018	0.0673	–	0.0671	–	0.0781	0.0648
Q146C	0.0873	–	–	0.0886	0.0676	0.0613	–	0.073	–	0.108	0.0454	0.12	0.0963	–	0.0726	–	0.0972	–	0.0792	–
Q146K	0.121	0.126	0.106	–	0.0552	0.0668	0.0923	0.0807	0.0547	–	0.0623	0.0985	0.0549	0.0646	0.0589	0.0708	0.079	0.0813	0.0649	0.0655
P93M	0.0941	0.112	–	–	0.0519	0.0604	0.107	–	0.0451	0.0742	0.0554	0.102	0.0619	–	0.0662	0.0745	–	–	–	0.0815
K90W	0.119	0.116	–	0.092	0.0538	0.0574	0.0905	–	0.0571	0.0781	0.0555	0.0949	0.0595	0.0568	0.0771	0.0896	–	–	0.067	–
Q105R	0.0847	0.137	0.102	–	0.0583	0.0612	0.102	0.0872	0.054	0.0803	0.0671	0.104	0.0682	0.0542	0.0612	0.0853	0.0701	0.081	0.0641	–
Q105D	0.0947	0.129	0.0758	0.0761	0.0594	0.0798	0.0487	0.0686	0.0651	–	0.0559	0.105	0.0827	0.0602	0.061	0.0699	0.0816	0.0597	0.0636	0.0239
S135R	0.0633	0.0723	–	–	–	0.0618	0.0608	0.0662	0.0546	0.0566	0.0551	0.0664	0.0521	0.0611	0.0633	0.0621	0.0782	–	0.0566	0.0627
S127E	0.0819	0.132	0.0868	0.0673	0.0538	0.0675	0.0964	0.0289	0.0647	0.0866	0.0573	0.0964	0.0634	0.0736	–	0.054	0.0684	0.0779	0.0355	–
S127G	0.105	0.131	0.114	0.0915	0.084	0.0493	0.0917	0.0528	0.0515	0.0734	0.073	0.113	0.0687	0.044	0.0684	0.0749	–	0.0609	0.0642	–
S127K	0.105	–	0.0535	0.0864	–	0.062	–	–	–	–	0.051	0.101	0.0657	–	–	–	–	0.096	–	–
R106A	0.0962	0.126	–	0.0848	0.0643	0.0437	0.0885	0.0871	0.0559	–	0.065	0.105	0.0681	0.0724	–	0.0529	–	–	–	–
D82N	0.0545	–	–	0.0512	0.0802	–	–	0.0666	–	0.0491	0.0648	0.06	0.0561	0.0586	–	–	0.0651	0.0616	0.0541	–
D82K	0.0629	–	0.0641	–	0.0656	0.0453	–	0.0614	–	–	0.0627	0.0569	0.0239	–	0.0584	–	–	–	0.0538	–
I145K	0.0646	0.0556	0.0545	–	0.0401	0.0538	–	0.0578	0.0658	0.0595	0.0687	0.0598	0.0443	0.053	–	0.0555	–	–	0.0368	0.059
